Measurements reported in the BET-seq Pho4 binding data (Le et al. 2018).
This is one part of the list. The energies were worked out here from pooled read counts, against the library average; single values are noisy.

target: T1, Pho4 (S. cerevisiae) (UniProt P07270); assay: relative binding free energy (BET-seq); higher = weaker binding; conditions: reference: library average
T1 sequence: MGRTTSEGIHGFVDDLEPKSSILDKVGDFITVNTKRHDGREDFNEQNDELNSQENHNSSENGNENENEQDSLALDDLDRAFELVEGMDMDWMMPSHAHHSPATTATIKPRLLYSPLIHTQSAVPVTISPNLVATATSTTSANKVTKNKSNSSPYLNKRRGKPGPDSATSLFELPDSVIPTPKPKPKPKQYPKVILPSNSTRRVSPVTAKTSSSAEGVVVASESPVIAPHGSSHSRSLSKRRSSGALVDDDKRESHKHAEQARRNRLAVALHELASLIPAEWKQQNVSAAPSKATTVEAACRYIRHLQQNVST

Sequence | relative binding free energy
TTATACACGTGCAGGG | -0.15 kcal/mol
GGCGTCACGTGCTTGT | 0.07 kcal/mol
TGTTTCACGTGAGATT | 0.31 kcal/mol
TAAGTCACGTGTGCAG | 0.04 kcal/mol
GCGGACACGTGTTTGG | 0.01 kcal/mol
GTACTCACGTGTCGGG | 0.32 kcal/mol
GTATGCACGTGGAGGT | 0.06 kcal/mol
GAGTCCACGTGGGTTG | 0.02 kcal/mol
TAATGCACGTGAAAGT | 0.22 kcal/mol
CTGATCACGTGGGTAA | 0.1 kcal/mol
AGTCGCACGTGTGTGT | 0.04 kcal/mol
ATAATCACGTGGTGTA | 0.09 kcal/mol
TTGGGCACGTGGCTAT | -0.17 kcal/mol
AGGAACACGTGAATGG | 0.22 kcal/mol
TGGATCACGTGTCGGT | 0.28 kcal/mol
CTTGGCACGTGGTGAT | -0.17 kcal/mol
AGCTGCACGTGGTAGG | -0.06 kcal/mol
TCTTGCACGTGTTGTG | -0.01 kcal/mol
TGGTCCACGTGAGGTT | 0.35 kcal/mol
TTTTTCACGTGTTACT | 0.37 kcal/mol
GTCAGCACGTGTGGTT | 0.03 kcal/mol
TTAGTCACGTGTGGCA | -0.07 kcal/mol
GTTTCCACGTGTGGTG | 0.24 kcal/mol
TTCGTCACGTGGCGTG | 0.11 kcal/mol
GAGTGCACGTGCATGG | -0.11 kcal/mol

Sequence | relative binding free energy
GTGCTCACGTGGCTTA | 0.3 kcal/mol
TATCTCACGTGTTTCG | 0.22 kcal/mol
TTGGACACGTGGAACG | 0.24 kcal/mol
AACTGCACGTGAGTGG | 0.05 kcal/mol
ATAGCCACGTGGTGGG | -0.24 kcal/mol
GAAGTCACGTGGACGG | 0.16 kcal/mol
AGCTGCACGTGGGAAG | -0.06 kcal/mol
TAGCTCACGTGCTGGG | 0.15 kcal/mol
CGGAACACGTGTGTAT | 0.08 kcal/mol
ATTGCCACGTGGTTTG | -0.19 kcal/mol
TAGAGCACGTGACGTT | -0.02 kcal/mol
TAGTGCACGTGCCTTG | 0 kcal/mol
GGAAACACGTGGGGAC | 0.11 kcal/mol
TGTTGCACGTGTGCTC | 0.05 kcal/mol
GAGTACACGTGAGGAG | 0.25 kcal/mol
GTCAGCACGTGCGTGG | -0.08 kcal/mol
TTTGGCACGTGCGGTG | -0.06 kcal/mol
GGTGGCACGTGTTGTA | -0.03 kcal/mol
GTTATCACGTGTGGAA | 0.21 kcal/mol
TTTTTCACGTGTCTAC | 0.32 kcal/mol
TGGTGCACGTGATGAG | 0.02 kcal/mol
CGCGGCACGTGGGCGG | -0.26 kcal/mol
GTTGGCACGTGAGTAA | 0.11 kcal/mol
TAGATCACGTGGGACG | 0.19 kcal/mol
GGTGACACGTGCAGTG | -0.02 kcal/mol

Sequence | relative binding free energy
TGGGACACGTGGATGA | 0.08 kcal/mol
TGTACCACGTGTTGAG | -0.08 kcal/mol
ATTAGCACGTGAGCTT | 0.24 kcal/mol
TCGTGCACGTGATTTT | 0.18 kcal/mol
TTGGACACGTGTGGTT | 0.12 kcal/mol
TGGGTCACGTGTGCCA | 0.06 kcal/mol
TTATTCACGTGGCTAT | 0.4 kcal/mol
GGGATCACGTGTGTCA | 0.2 kcal/mol
GTGGGCACGTGTGAAA | 0.12 kcal/mol
GCAAGCACGTGGTTGG | -0.09 kcal/mol
AGCGTCACGTGAGGGC | 0.19 kcal/mol
TGATTCACGTGTATTG | 0.17 kcal/mol
ACGTGCACGTGTGATG | -0.01 kcal/mol
GAAAACACGTGTATGG | 0.13 kcal/mol
TTGAACACGTGGTGGT | 0.02 kcal/mol
TTTTACACGTGTCTGA | 0.12 kcal/mol
TTCGACACGTGGTGGG | -0.02 kcal/mol
GACTTCACGTGGTGAT | 0.34 kcal/mol
GCGGTCACGTGCTGGG | 0.08 kcal/mol
GGTGACACGTGTATCG | 0.06 kcal/mol
GGTACCACGTGATGTG | 0.12 kcal/mol
TAGTACACGTGGGAGC | 0 kcal/mol
TTGTGCACGTGGCGCG | -0.24 kcal/mol
CATCTCACGTGTGTGT | 0.24 kcal/mol
TAGGTCACGTGTTGGG | 0.14 kcal/mol

Sequence | relative binding free energy
TAGTTCACGTGGCAGT | 0.26 kcal/mol
GGAAACACGTGTAGGG | 0.02 kcal/mol
GGGGACACGTGGTGAA | 0 kcal/mol
GAATGCACGTGCGGGA | 0.08 kcal/mol
TATCGCACGTGGGTGA | -0.24 kcal/mol
TGGGGCACGTGACGTC | 0.08 kcal/mol
GGTGACACGTGGAGAG | 0.06 kcal/mol
TAGGTCACGTGGGTCC | 0.08 kcal/mol
TCAGTCACGTGTTCTG | 0.27 kcal/mol
GATATCACGTGTGTTT | 0.29 kcal/mol
GTTCACACGTGTGTAG | 0.16 kcal/mol
GGTATCACGTGGGAGG | -0.01 kcal/mol
TCATTCACGTGCGGGG | 0.27 kcal/mol
GATCGCACGTGGGTGT | -0.09 kcal/mol
GTGTGCACGTGCGGTC | 0.01 kcal/mol
TGTCTCACGTGGGTAT | 0.15 kcal/mol
GACGGCACGTGGGTTT | -0.04 kcal/mol
AGTGGCACGTGAATAA | 0.25 kcal/mol
AATAACACGTGAATGG | 0.29 kcal/mol
CTCGTCACGTGAGTGT | 0.29 kcal/mol
TAGGGCACGTGTTTGC | -0.13 kcal/mol
GTTCACACGTGATTGT | 0.15 kcal/mol
CTAAGCACGTGGGGGC | -0.26 kcal/mol
TGTTACACGTGGCGCG | 0.04 kcal/mol
GAGTTCACGTGTTTGT | 0.34 kcal/mol

Sequence | relative binding free energy
CGGTTCACGTGTAGGC | 0.26 kcal/mol
GGAAGCACGTGGGCGT | -0.29 kcal/mol
GATTTCACGTGCTGGT | 0.28 kcal/mol
TAAATCACGTGGAAGG | 0.22 kcal/mol
AGTCACACGTGTTGTT | -0.05 kcal/mol
GGATTCACGTGAATGT | 0.42 kcal/mol
GGAAGCACGTGGGGGG | -0.18 kcal/mol
CTGCGCACGTGGGCGG | -0.26 kcal/mol
TTTGGCACGTGGCAGT | -0.27 kcal/mol
TTAATCACGTGGAATG | 0.17 kcal/mol
TGTGGCACGTGTAAGC | -0.06 kcal/mol
CGTTACACGTGTTGGT | 0.09 kcal/mol
GTCAGCACGTGGTTGA | -0.08 kcal/mol
AGGGACACGTGGACAG | 0.02 kcal/mol
TTCTACACGTGGGGCT | 0.12 kcal/mol
ATTGACACGTGGATGC | 0.06 kcal/mol
TGACGCACGTGAGTGT | -0.01 kcal/mol
GGAGGCACGTGCGTAA | -0.11 kcal/mol
GGTCGCACGTGGCGGA | -0.14 kcal/mol
AGTATCACGTGCTAGG | 0.12 kcal/mol
GGTCTCACGTGCGTTG | 0.25 kcal/mol
TTATACACGTGCGGTA | 0 kcal/mol
TTGGACACGTGCGATG | 0.06 kcal/mol
TAGGGCACGTGTGTCG | 0 kcal/mol
CCTGGCACGTGTGGTT | -0.08 kcal/mol

Sequence | relative binding free energy
TGTGGCACGTGTTTTG | -0.05 kcal/mol
TGAATCACGTGAGTGT | 0.35 kcal/mol
AGTGTCACGTGGATTC | 0.01 kcal/mol
GGGAACACGTGAAGTA | 0.46 kcal/mol
TTGGTCACGTGGGCTT | 0.08 kcal/mol
ATTGTCACGTGTCTAG | 0.11 kcal/mol
GTGCGCACGTGCGGGT | -0.13 kcal/mol
TAAGGCACGTGGGTTA | -0.19 kcal/mol
TGGTCCACGTGGGGCA | -0.19 kcal/mol
CGAATCACGTGTTATG | 0.25 kcal/mol
TTGCGCACGTGTTCAT | -0.01 kcal/mol
ATAGTCACGTGGTCTT | -0.01 kcal/mol
TATGACACGTGTAAGA | 0.13 kcal/mol
GTCTTCACGTGCGGGT | 0.3 kcal/mol
AGTAACACGTGAGTAG | 0.31 kcal/mol
CGGTACACGTGAATGT | 0.26 kcal/mol
TTGGACACGTGAAAGA | 0.36 kcal/mol
TTTCTCACGTGTTGCT | 0.15 kcal/mol
CTTGTCACGTGATGTT | 0.12 kcal/mol
ACTTTCACGTGTTAAG | 0.29 kcal/mol
TTGATCACGTGTCGCG | 0.13 kcal/mol
